From PMC4336329 (PLoS ONE, 2015)
In all, about 310,000 compounds went through this assay and about 2,200 (0.71%) showed an effect of 50% or more. Effects have a minus sign here. The list shows a part of the results.

target: human ether-à-go-go-related gene (hERG) potassium channel (human, UniProt Q12809); assay: primary screen, population patch clamp on CHO cells stably expressing hERG
Sequence (Q12809 whole entry, looked up): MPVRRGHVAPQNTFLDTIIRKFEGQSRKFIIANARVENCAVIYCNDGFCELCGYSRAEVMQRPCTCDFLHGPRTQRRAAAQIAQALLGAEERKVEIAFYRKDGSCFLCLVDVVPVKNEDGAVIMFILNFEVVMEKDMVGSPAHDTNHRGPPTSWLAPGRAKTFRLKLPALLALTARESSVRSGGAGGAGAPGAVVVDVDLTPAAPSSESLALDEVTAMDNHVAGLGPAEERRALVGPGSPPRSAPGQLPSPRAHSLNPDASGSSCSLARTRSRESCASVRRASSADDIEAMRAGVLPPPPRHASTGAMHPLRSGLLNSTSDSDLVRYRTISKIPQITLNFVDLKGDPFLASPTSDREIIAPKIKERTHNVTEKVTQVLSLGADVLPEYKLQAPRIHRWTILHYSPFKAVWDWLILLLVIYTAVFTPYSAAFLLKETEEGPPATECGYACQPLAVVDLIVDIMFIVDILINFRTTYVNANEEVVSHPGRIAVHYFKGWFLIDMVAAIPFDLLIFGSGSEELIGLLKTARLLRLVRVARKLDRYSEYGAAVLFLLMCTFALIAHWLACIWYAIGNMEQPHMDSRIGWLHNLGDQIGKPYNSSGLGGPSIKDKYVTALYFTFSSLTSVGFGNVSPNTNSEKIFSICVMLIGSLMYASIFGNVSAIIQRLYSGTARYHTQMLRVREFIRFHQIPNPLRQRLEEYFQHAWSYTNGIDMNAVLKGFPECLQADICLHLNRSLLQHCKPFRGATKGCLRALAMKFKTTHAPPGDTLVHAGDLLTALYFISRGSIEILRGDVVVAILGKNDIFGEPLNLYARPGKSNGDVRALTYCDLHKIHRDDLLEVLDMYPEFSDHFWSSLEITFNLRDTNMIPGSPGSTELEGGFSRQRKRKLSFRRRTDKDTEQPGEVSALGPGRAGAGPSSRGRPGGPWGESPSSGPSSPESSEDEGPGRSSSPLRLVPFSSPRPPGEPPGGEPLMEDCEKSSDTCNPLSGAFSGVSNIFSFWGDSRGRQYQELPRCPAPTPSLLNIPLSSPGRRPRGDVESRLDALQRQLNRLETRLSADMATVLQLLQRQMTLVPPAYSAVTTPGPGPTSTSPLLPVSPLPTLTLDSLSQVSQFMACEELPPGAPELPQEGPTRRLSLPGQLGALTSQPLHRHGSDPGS

| Structure (SMILES) | hERG current change (%, negative = inhibition) at 1uM |
| --- | --- |
| COc1ccc(O)c(CN2CCN(C/C=C/c3ccccc3)CC2)c1 | -29% |
| COc1cccc(C(=O)N2CCN(C(=O)COc3ccc4ccccc4c3)CC2)c1 | -3.85% |
| CN(CC(=O)Nc1ccccc1Cl)C(=O)c1ccc(N2CCCCCC2)c([N+](=O)[O-])c1 | 10.1% |
| CC1=NN(C(=O)c2ccc(Br)cc2)C(O)(C(F)(F)OC(F)(F)F)C1 (stereo not drawn) | 17.2% |
| COc1ccc(C(C(=O)NC(C)(C)C)N(CCc2ccc(OC)c(OC)c2)C(=O)CCC(=O)Nc2cc(C)on2)cc1 (stereo not drawn) | 7.78% |
| CCNc1nc(Cl)nc(NC2CCCCC2)n1 | 15.4% |
| Cc1ccc(S(=O)(=O)N(C)C)cc1NC(=O)c1cccnc1Oc1ccccc1 | 11.9% |
| Cn1ncc2cc(NC(=S)NC(=O)c3ccccc3)ccc21 | 3.88% |
| O=C(Nc1ccc2c(c1)OCO2)N1CCN(C/C=C/c2ccccc2)CC1 | 7.96% |
| CN(CC(O)COc1c(F)cc(Br)cc1F)C1CCCCC1.Cl (stereo not drawn) | -14% |
| CCOC(=O)CSc1nc(C)c2cc(C)c(C)cc2n1 | 10.4% |
| Cc1ccn2c(Nc3ccccc3)c(-c3ccccn3)nc2c1 | 3.82% |
| Nc1ccc(S(=O)(=O)NC(=O)c2ccccc2)cc1 | 6.98% |
| COc1ccc(NC(=O)NC2(C(=O)N3CCCCC3)CCCCC2)cc1 | 21.7% |
| NNC(=O)c1csc(-c2cccc(C(F)(F)F)c2)n1 | 0.179% |
| CCc1noc(C)c1C(=O)Nc1ncc(C)s1 | 3.48% |
| COc1ccc(NC(=O)CN(C)C(=O)c2cc(-c3ccc(Cl)cc3)nc3ccccc23)cc1 | 8.91% |
| CCOC(=O)c1[nH]c(C)c(C(=O)Nc2ccc3c(c2)OCCO3)c1C | -12.9% |
| Cl.OCCN1CCN(c2ncnc3ccc(Br)cc23)CC1 | 12.6% |
| Cc1nc(CC(=O)c2c(C)cc(O)cc2O)cs1 | 11.1% |
| COc1ccc(-c2nn(-c3ccccc3)cc2/C=N/Nc2ccccn2)cc1 | 12.8% |
| CCOc1ccccc1OCCCC(=O)NNC(=O)c1nn(C)c(=O)c2ccccc12 | 5.57% |
| COc1cccc(C(=O)c2cn(CC(=O)NCc3ccco3)c3nc(C)ccc3c2=O)c1 | -6.17% |

| Structure (SMILES) | hERG current change (%, negative = inhibition) at 1uM |
| --- | --- |
| COC(=O)c1cc2c(ccc3ccccc32)oc1=O | 7.94% |
| COCCNC(=O)Cn1cnc2c1c(=O)n(C)c(=O)n2C | 5.36% |
| Cc1ccc2oc(=O)cc(CN3CCN(Cc4ccccc4)CC3)c2c1 | -18.6% |
| COc1ccccc1NC(=O)c1cccc(S(=O)(=O)N2CCN(c3ccccc3)CC2)c1 | 8.92% |
| CCOC(=O)NC(CC(=O)O)c1ccc(OC)cc1 (stereo not drawn) | 6.34% |
| CCOC(=O)c1cnc(SCC(=O)Nc2cc(OC)cc(OC)c2)nc1N | -1.11% |
| O=C(NC(=S)Nc1ccccc1C(=O)O)c1ccc(-c2ccc(Br)cc2)o1 | 10.9% |
| COC(=O)c1ccccc1NC(=O)c1ccc(Cn2cc(Cl)cn2)o1 | 2.95% |
| Cc1nccn1CCCN1C(=O)OC2(CCCCC2)C1(C)O (stereo not drawn) | 11.6% |
| CS(=O)(=O)N(Cc1ccccc1F)c1ccccc1 | 10.3% |
| Cc1ccc(OCC(=O)NC(=S)Nc2ccccn2)c(Br)c1 | 6.22% |
| CCN(CC)CCCNC(=O)c1cn(CCOC)c(=O)c2c1c1ccccc1n2C | 9% |
| O=C(CCCO)NC1Cc2ccccc2C1 | 13.2% |
| Cc1ccsc1C(=O)OCC(=O)Nc1sccc1C(N)=O | -3.16% |
| COc1cccc(CNC(=O)C(C)n2ccc3cc(S(=O)(=O)N4CCCCCC4)ccc32)c1 (stereo not drawn) | 8.09% |
| COCCNC(=S)N/N=C(\C)c1ccc(-n2ccnc2)cc1 | -17.5% |
| CCOC(=O)Oc1ccc(/C=C2\N=C(C)OC2=O)cc1 | 21.7% |
| Cn1c(SCC(=O)Nc2cc([N+](=O)[O-])ccc2F)nnc1C(F)(F)F | 7.54% |
| COc1cccc(NC(=O)CC(c2ccc(OC(C)C)cc2)c2ccccc2OC)c1 (stereo not drawn) | 7.48% |
| COc1ccc(N2CCN(S(=O)(=O)CCNC(=O)C3CC3)CC2)cc1 | 9.13% |
| Cc1ccc(-c2nnc(N3CCC(C)CC3)c3ccccc23)cc1C | 20.6% |
| CCOC(=O)/C(C)=N/NC(=O)c1cccc([N+](=O)[O-])c1 | 11.4% |
| CCn1nnc2cc(C(=O)NCC(c3ccccc3OC)N(C)C)ccc21 (stereo not drawn) | 12% |

| Structure (SMILES) | hERG current change (%, negative = inhibition) at 1uM |
| --- | --- |
| COC(=O)c1sc(NC(=O)CSc2nnc(Cn3nnc4ccccc43)n2C)nc1C | 1.83% |
| COc1ccc(NC2c3ccccc3C(=O)N2c2cccnc2)cc1 (stereo not drawn) | 1.56% |
| CCCn1c(CN2CCN(C(=O)OCC)CC2)nc2cc(NC(=O)C(C)C)ccc21 | 13% |
| O=C(NCCC1=CCCCC1)C(=O)NCC1OCCCN1S(=O)(=O)c1ccc(F)cc1 (stereo not drawn) | -0.891% |
| CCOC(=O)CCN=Cc1c(O)n(-c2ccc(Br)cc2)c(=O)[nH]c1=O | 12% |
| CCN(Cc1ccc(C#CCCO)cc1)CC1CCCN(CCc2cccc(OC)c2)C1 (stereo not drawn) | 2.99% |
| Cc1cc(C)n(C(=O)CNC(=O)c2cccs2)n1 | 11.2% |
| O=C(CN(Cc1ccccc1)C(=O)CCC(=O)Nc1nccs1)NCc1ccccc1 | 8.01% |
| CC(C)c1ccc(N2C(=O)NC(=O)/C(=C/c3cnc(-c4ccccc4)nc3)C2=O)cc1 | 1.66% |
| CC(C)N(C(=O)Nc1ccc2nccnc2c1)C(C)C | 11.9% |
| COc1ccc(-n2c(SCC(=O)Nc3ccccc3C)nc(O)c(Cc3ccccc3)c2=O)cc1 | 15.1% |
| O=C(COc1coc(CN2CCN(c3ccccc3)CC2)cc1=O)Nc1ccc(F)cc1 | 10.4% |
| O=C(CN1CCN(S(=O)(=O)c2ccccc2F)CC1)NC1CCCC1 | -0.655% |
| COc1ccc(C(C(=O)NCC2CCCO2)N(C(=O)CNC(=O)c2cccs2)c2ccc(C(C)=O)cc2)cc1OC (stereo not drawn) | 18.2% |
| CN(C)S(=O)(=O)Oc1ccccc1C(=O)Nc1ccc(F)cc1 | 7.84% |
| COc1ccc(NC(=O)c2cnc(SC)nc2C)c(OC)c1 | 2.63% |
| COCC1CCN(C(=O)C2CCC(=O)N(C3CCCCCC3)C2)CC1 (stereo not drawn) | 3.77% |
| OCCCc1nc2ccccc2[nH]1 | 11.1% |
| Cc1cc(C)cc(N2CCCn3c2nc2c3c(=O)n(CCN3CCOCC3)c(=O)n2C)c1 | 5.93% |
| COc1ccc(C(=O)CN2CCN(c3ccc(F)cc3)CC2)cc1 | -0.388% |
| O=C1CSC(=S)N1c1ccc(O)cc1 | 14% |
| COC(=O)c1ccc(NC(=O)c2cccc(C)c2[N+](=O)[O-])cc1 | 7.66% |
| Fc1c(F)c(F)c(N/N=C/c2c[nH]c3ccccc23)c(F)c1F | 7.82% |

| Structure (SMILES) | hERG current change (%, negative = inhibition) at 1uM |
| --- | --- |
| O=C(Nc1nn[nH]n1)c1ccc(S(=O)(=O)N2CCCCC2)cc1 | 22.5% |
| O=C(Cc1ccsc1)N1CCc2c([nH]c3ccccc23)C1c1ccccn1 (stereo not drawn) | 12.7% |
| Cc1c2c(n3c(nc4ccccc43)c1C#N)N(CCCN(C)C)CC2 | 3.42% |
| CCNC(=O)c1c(O)c2c([nH]c1=O)CCCC2 | 12.5% |
| COC(=O)[C@H](Cc1ccccc1)NC(=O)N1Cc2ccccc2C[C@H]1C(=O)OC | 12% |
| Cn1nccc1CNC(=O)c1ccnn1C | 18.6% |
| Cc1cccc(NC(=S)NNC(=O)c2csc3c2CCC(C)C3)c1 (stereo not drawn) | -5.08% |
| CCOC(=O)c1nc(NCc2cccc(OC)c2)c2ccccc2n1 | 4.64% |
| CSc1nc(C)cc(-n2cc(F)c(=O)[nH]c2=O)n1 | 4.14% |
| Cc1c(C)c2ccc(OCC(=O)N3CCC(C(=O)O)(c4ccccc4)CC3)cc2oc1=O | 2.47% |
| CCC(=O)NC(c1ccc(C)cc1)c1cc([N+](=O)[O-])c2cccnc2c1O (stereo not drawn) | 16.4% |
| CCOc1ccccc1CN1C(=O)NC(C)(c2ccccc2)C1=O (stereo not drawn) | -0.418% |
| CC(C)c1ccccc1NC(=O)COC(=O)c1ccc(Cl)c(S(=O)(=O)N2CCCCCC2)c1 | 19% |
| COc1ccccc1NC(=O)CC1SC(=N)N(c2ccccc2)C1=O (stereo not drawn) | 6.39% |
| Cc1ccc2c(=O)c(C(=O)NCc3cccs3)c[nH]c2c1 | 14.7% |
| Cc1ccc(N2C(=O)C(CN3CCCCC3)C2c2ccccc2)cc1 (stereo not drawn) | -4.6% |
| CCCc1nnc(NC(=O)c2ccncc2)s1 | 2.57% |
| COc1ccc(CN(C(=O)/C=C/c2ccccc2Cl)C2CCS(=O)(=O)C2)cc1 (stereo not drawn) | 10.5% |
| COc1cc(/C=N/NC(=O)CSc2ccccn2)ccc1OC(C)C | 8.09% |
| O=C1/C(=C2\C(=O)N(Cc3ccc(F)cc3)c3ccccc32)SC(=S)N1CCS(=O)(=O)O | 10.6% |
| COc1ccc(-c2cccc(NS(=O)(=O)c3cc([N+](=O)[O-])c(C)c([N+](=O)[O-])c3)c2)nn1 | 15.2% |
